# Results taken from PubChem BioAssay (Tox21).
# Where “and” joins values, the source holds several entries; their conditions need not be identical. Equal values may be shown once. The inconclusive results got no clear call from the source; some entries with a clear call stand among them for comparison. For some assays here: A potency beside an inconclusive call is a rough fit, not a confirmed value. Calls of active or inactive are those of the source. Unless noted, calls follow the shape of the dose curve; as a rule, active = well fitted curve in the direction sought with a large enough effect in the repeat runs; inconclusive = weak or mixed curves; inactive = no such curve, though single readings can be large; an effect the other way counts as inactive or inconclusive.
# Legend:
# [1] = biological target: Peroxisome proliferator-activated receptor gamma (Homo sapiens) (UniProt P37231); test: qHTS assay to identify small molecule antagonists of the peroxisome proliferator-activated receptor gamma (PPARg) signaling pathway (AID 743191; calls by dose curve; also: nearly all actives have a fitted effect of over 30% in size; also: potency is read from the fitted curve at half-maximal effect; as to ratio activity, negative = inhibition: % is scaled to controls: 0 for no effect and ±100 for the full control effect); conditions: HEK293H PPARg-UAS-bla, beta-lactamase ratio, antagonist, 17 h; ratio activity, negative = inhibition: at 62.6 µM (top of the series) unless noted
# Summary of the method: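 GeneBLAzer PPARg UAS-bla HEK293H cells carrying a UAS-driven beta-lactamase reporter were plated at 3000 cells/well, preincubated 5 h at 37C, then given compound for 17 h at 37C; LiveBLAzer B/G FRET substrate was read after 1 h at room temperature.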
# [2] = qHTS assay for small molecule agonists of the antioxidant response element (ARE) signaling pathway (AID 743202; active = well fitted activation curve with a large enough effect in the signal ratio in the repeat runs, not every such curve was filed as active; inconclusive = weak or mixed curves, or effect the other way; inactive = no such curve, though single readings can be large or run the other way; the % refers to the signal ratio; also: potency is read from the fitted curve at half-maximal effect; as to activation: % is scaled to controls: 0 for no effect and ±100 for the full control effect); conditions: HepG2 ARE-bla reporter, beta-lactamase FRET, 16 h; activation: at 73.3 µM (top of the series) unless noted
# Summary of the method: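 Read-out: LiveBLAzer B/G FRET substrate fluorescence after 2 h at room temperature, following 16 h compound treatment at 37 C of HepG2 cells carrying an ARE-driven beta-lactamase reporter.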
# [3] = qHTS assay to identify small molecule agonists of the NFkB signaling pathway - cell viability counter screen (AID 1159515; calls by dose curve; also: nearly all actives have a fitted effect of over 55% in size; also: potency is read from the fitted curve at half-maximal effect)
# Summary of the method: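 NFkB-bla ME-180 cells, 2,000/well, were plated overnight at 37 C, 5% CO2, then exposed to compounds in DMSO for 5 hr. After the bla FRET read, CellTiter-Glo was added to the same wells; luminescence was read after 30 min at room temperature.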
# [4] = qHTS assay to identify small molecule antagonists of the peroxisome proliferator-activated receptor gamma (PPARg) signaling pathway - cell viability counter screen (AID 743194); conditions: PPARg-bla HEK293H viability, CellTiter-Glo luminescence, 17 h; Potency: co-treated with 50 nM rosiglitazone unless noted; activity change, negative = cytotoxicity: at 62.6 µM (top of the series), co-treated with 50 nM rosiglitazone unless noted; also: potency is read from the fitted curve at half-maximal effect; nearly all actives have a fitted effect of over 55% in size
# Summary of the method: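 PPARg-UAS-bla HEK293H cells were plated, rested 5 h at 37 C, then treated with compounds plus rosiglitazone (50 nM final) for 17 h at 37 C; viability was then read by CellTiter-Glo luminescence after 30 min at room temperature.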
# [5] = qHTS assay for small molecule agonists of the antioxidant response element (ARE) signaling pathway - cell viability counter screen (AID 743203; calls by dose curve; also: potency is read from the fitted curve at half-maximal effect; nearly all actives have a fitted effect of over 55% in size)
# Summary of the method: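 CellSensor ARE-bla HepG2 cells, 2,000 per well, rested 5 hrs at 37C/5% CO2, then exposed to compound in DMSO for 16 hrs; viability read as CellTiter-Glo luminescence after 30 min at room temperature, in the reporter wells.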
# [6] = biological target: Vitamin D3 receptor (Homo sapiens) (UniProt P11473); test: qHTS assay to identify small molecule antagonists of the vitamin D receptor (VDR) signaling pathway (AID 743223; active = well fitted inhibition curve with a large enough effect in the signal ratio in the repeat runs, not every such curve was filed as active; inconclusive = weak or mixed curves, or effect the other way; inactive = no such curve, though single readings can be large or run the other way; the % refers to the signal ratio; also: potency is read from the fitted curve at half-maximal effect; as to activity change, negative = inhibition: % is scaled to controls: 0 for no effect and ±100 for the full control effect); conditions: VDR-UAS-bla HEK293T, beta-lactamase FRET ratio, 16 h; activity change, negative = inhibition: at 61 µM (top of the series) unless noted
# Summary of the method: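 VDR-bla cells were plated, incubated 4 h at 37C, then given compound and 1alpha,25-dihydroxyvitamin D3 (3 nM final). After 16 h at 37C, LiveBLAzer B/G FRET substrate was added for 2 h at room temperature and fluorescence read.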
# [7] = qHTS assay to identify small molecule antagonists of the vitamin D receptor (VDR) signaling pathway - cell viability counter screen (AID 743225); conditions: VDR-bla HEK293T viability, CellTiter-Glo luminescence, 16 h; viability change, negative = cytotoxic: at 61 µM (top of the series) unless noted; also: nearly all actives have a fitted effect of over 50% in size; also: potency is read from the fitted curve at half-maximal effect
# Summary of the method: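 VDR-bla HEK 293T cells, 4 h pre-incubation at 37C, then compound plus 1-alpha,25-dihydroxyvitamin D3 (3 nM final) for 16 h. After the beta-lactamase FRET read, CellTiter-Glo was added to the same wells; luminescence after 30 min at room temperature.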
# [8] = qHTS assay for small molecule activators of the heat shock response signaling pathway - cell viability counter screen (AID 743209); conditions: HSE-bla HeLa viability, CellTiter-Glo luminescence, 5 h; activity change, negative = cytotoxicity: at 62.6 µM (top of the series) unless noted; also: potency is read from the fitted curve at half-maximal effect; nearly all actives have a fitted effect of over 50% in size
# Summary of the method: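 CellSensor HSE-bla HeLa cells, plated overnight at 37 C/5% CO2, were exposed to compounds in DMSO for 5 h at 37 C. Viability was then read in the same wells by CellTiter-Glo luminescence after 30 min at room temperature.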
# [9] = qHTS assay for small molecule activators of the heat shock response signaling pathway (AID 743210; active = well fitted activation curve with a large enough effect in the signal ratio in the repeat runs, with a control signal flat, not every such curve was filed as active; inconclusive = weak or mixed curves; the % refers to the signal ratio; also: potency is read from the fitted curve at half-maximal effect); conditions: HeLa HSE-bla reporter, beta-lactamase ratio, 5 h; activation: at 62.6 µM (top of the series)
# Summary of the method: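 HSE-bla HeLa cells (beta-lactamase reporter under heat shock response elements) were exposed to compounds for 5 h at 37 C, then loaded with LiveBLAzer B/G FRET substrate for 2.5 h at room temperature before fluorescence reading.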
# [10] = biological target: Peroxisome proliferator-activated receptor delta (Homo sapiens) (UniProt Q03181); test: qHTS assay to identify small molecule agonists of the peroxisome proliferator-activated receptor delta (PPARd) signaling pathway (AID 743212; calls by dose curve; also: potency is read from the fitted curve at half-maximal effect); conditions: HEK293H PPARd-UAS-bla, beta-lactamase FRET ratio, 17 h
# Summary of the method: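 GeneBLAzer PPARd UAS-bla HEK293H cells (beta-lactamase reporter under UAS control), plated and rested 5 h at 37 C, then exposed to compounds in DMSO at 37 C; LiveBLAzer B/G FRET substrate added, 2 h room temperature, fluorescence read.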
# [11] = qHTS assay to identify small molecule antagonists of the peroxisome proliferator-activated receptor delta (PPARd) signaling pathway - cell viability counter screen (AID 743213); conditions: PPARd-bla HEK293H viability, CellTiter-Glo luminescence, 17 h; viability change, negative = cytotoxic: at 62 µM (top of the series) unless noted; also: nearly all actives have a fitted effect of over 50% in size; also: potency is read from the fitted curve at half-maximal effect
# Summary of the method: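 Luminescence from CellTiter-Glo, added after the bla read and incubated 30 min at room temperature, gives viability of HEK293H PPARd-bla cells exposed to compounds for 17 h at 37 C with 300 nM L165041.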
# [12] = biological target: Bile acid receptor (Homo sapiens) (UniProt Q96RI1); test: qHTS assay to identify small molecule antagonists of the farnesoid-X-receptor (FXR) signaling pathway (AID 743217; active = well fitted inhibition curve with a large enough effect in the signal ratio in the repeat runs, not every such curve was filed as active; inconclusive = weak or mixed curves, or effect the other way; inactive = no such curve, though single readings can be large or run the other way; the % refers to the signal ratio; also: potency is read from the fitted curve at half-maximal effect); conditions: HEK293T FXR-UAS-bla, beta-lactamase ratio, CDCA-stimulated, 16 h; activity change, negative = inhibition: at 62.6 µM (top of the series) unless noted
# Summary of the method: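 FXR-UAS-bla HEK 293T cells pre-incubated 5 h at 37 °C, then exposed to compounds with chenodeoxycholic acid (50 uM final) for 16 h at 37 °C. Beta-lactamase reporter read by LiveBLAzer B/G FRET substrate fluorescence after 2 h at room temperature.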
# [13] = qHTS assay to identify small molecule agonists of the farnesoid-X-receptor (FXR) signaling pathway - cell viability counter screen (AID 743218); conditions: FXR-bla HEK293T viability, CellTiter-Glo luminescence, 16 h; viability change, negative = cytotoxic: at 62.6 µM (top of the series) unless noted; also: potency is read from the fitted curve at half-maximal effect; nearly all actives have a fitted effect of over 45% in size
# Summary of the method: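 FXR-UAS-bla HEK 293T cells, plated 5 h at 37 C, were exposed to compounds for 16 h at 37 C. CellTiter-Glo was then added to the same wells as the bla readout; luminescence read after 30 min at room temperature.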
# [14] = qHTS assay to identify small molecule antagonists of the farnesoid-X-receptor (FXR) signaling pathway - cell viability counter screen (AID 743221; active = well fitted cell-killing curve with a large enough effect in the repeat runs, not every such curve was filed as active; inconclusive = weak or mixed curves, or effect the other way; inactive = no such curve, though single readings can be large or run the other way; also: potency is read from the fitted curve at half-maximal effect; nearly all actives have a fitted effect of over 50% in size); conditions: FXR-bla HEK293T viability, CellTiter-Glo luminescence, 16 h; activity change, negative = cytotoxicity: at 62.6 µM (top of the series) unless noted
# Summary of the method: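 FXR-UAS-bla HEK 293T cells were treated with test compounds plus chenodeoxycholic acid (50 uM final) for 16 h at 37 C. Cell viability in the same wells was then read as CellTiter-Glo luminescence after 30 min at room temperature.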
# [15] = qHTS assay to identify small molecule agonists of the vitamin D receptor (VDR) signaling pathway - cell viability counter screen (AID 743224)
# Summary of the method: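 VDR-bla cells were preincubated 4 h at 37C/5% CO2, then exposed to compounds for 16 h. After the 2 h room-temperature bla FRET read, CellTiter-Glo was added to the same wells and luminescence read after 30 min.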
# [16] = qHTS assay to identify small molecule agonists of the peroxisome proliferator-activated receptor delta (PPARd) signaling pathway - cell viability counter screen (AID 743211); conditions: PPARd-bla HEK293H viability, CellTiter-Glo luminescence, 17 h; activity change, negative = cytotoxicity: at 62.6 µM (top of the series) unless noted; also: potency is read from the fitted curve at half-maximal effect; nearly all actives have a fitted effect of over 55% in size
# Summary of the method: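 PPARd-bla HEK293H cells (UAS-beta-lactamase reporter) were treated with compounds for 17 h at 37 C. Viability was then read in the same wells by CellTiter-Glo luminescence after 30 min at room temperature.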
# [17] = biological target: Vitamin D3 receptor (Homo sapiens) (UniProt P11473); test: qHTS assay to identify small molecule agonists of the vitamin D receptor (VDR) signaling pathway (AID 743222; calls by dose curve; also: % is scaled to controls: 0 for no effect and ±100 for the full control effect); conditions: HEK293T VDR-UAS-bla, beta-lactamase FRET ratio, 16 h; activation: at 63.5 µM (top of the series) unless noted
# Summary of the method: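 VDR-bla cells were plated 4 h at 37C/5% CO2, then exposed to compounds in DMSO for 16 h. After LiveBLAzer B/G FRET substrate addition and 2 h at room temperature, beta-lactamase reporter fluorescence was read.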
# [18] = activation: at 62.6 µM (top of the series) unless noted
# Tags tell the direction and shape of the fitted curve or compound fluorescence and quenching.
# UniProt P37231, sequence (P37231 whole entry, looked up): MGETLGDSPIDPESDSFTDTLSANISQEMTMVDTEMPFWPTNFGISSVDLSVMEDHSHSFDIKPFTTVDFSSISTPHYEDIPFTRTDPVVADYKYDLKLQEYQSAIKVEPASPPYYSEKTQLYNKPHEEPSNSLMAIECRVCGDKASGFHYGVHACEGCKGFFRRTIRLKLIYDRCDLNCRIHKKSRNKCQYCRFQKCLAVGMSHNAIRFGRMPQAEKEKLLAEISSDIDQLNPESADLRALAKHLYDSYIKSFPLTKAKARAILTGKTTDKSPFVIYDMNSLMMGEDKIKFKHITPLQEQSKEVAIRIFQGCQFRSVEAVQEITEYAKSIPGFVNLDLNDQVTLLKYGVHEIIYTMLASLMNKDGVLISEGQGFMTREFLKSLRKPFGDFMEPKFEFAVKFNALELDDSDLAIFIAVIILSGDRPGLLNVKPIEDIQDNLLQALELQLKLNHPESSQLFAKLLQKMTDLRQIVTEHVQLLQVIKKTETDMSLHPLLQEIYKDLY
# UniProt P11473, sequence (P11473 whole entry, looked up): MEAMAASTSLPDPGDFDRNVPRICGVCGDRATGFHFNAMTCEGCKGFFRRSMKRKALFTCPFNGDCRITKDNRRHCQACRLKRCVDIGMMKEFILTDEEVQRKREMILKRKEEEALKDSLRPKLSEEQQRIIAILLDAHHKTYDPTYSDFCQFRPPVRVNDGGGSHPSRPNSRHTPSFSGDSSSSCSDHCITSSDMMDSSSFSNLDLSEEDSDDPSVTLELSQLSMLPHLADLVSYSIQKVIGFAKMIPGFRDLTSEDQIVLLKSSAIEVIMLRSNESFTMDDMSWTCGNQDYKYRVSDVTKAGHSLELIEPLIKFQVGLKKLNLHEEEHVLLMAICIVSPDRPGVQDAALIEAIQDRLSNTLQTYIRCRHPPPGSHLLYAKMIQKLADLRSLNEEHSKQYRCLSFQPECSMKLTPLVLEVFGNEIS
# UniProt Q03181, sequence (Q03181 whole entry, looked up): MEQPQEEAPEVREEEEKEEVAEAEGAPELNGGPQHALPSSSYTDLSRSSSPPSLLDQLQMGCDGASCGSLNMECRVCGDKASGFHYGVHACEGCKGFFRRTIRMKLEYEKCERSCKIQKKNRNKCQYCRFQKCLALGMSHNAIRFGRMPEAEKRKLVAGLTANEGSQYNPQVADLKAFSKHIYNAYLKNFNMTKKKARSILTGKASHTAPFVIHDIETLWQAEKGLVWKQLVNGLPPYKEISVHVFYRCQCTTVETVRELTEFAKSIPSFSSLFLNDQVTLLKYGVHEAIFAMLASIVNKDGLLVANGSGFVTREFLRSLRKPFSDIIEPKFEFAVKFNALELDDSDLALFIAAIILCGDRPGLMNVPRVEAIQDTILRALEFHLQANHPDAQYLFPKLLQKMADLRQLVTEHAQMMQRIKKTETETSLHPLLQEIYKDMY
# UniProt Q96RI1, sequence (Q96RI1 whole entry, looked up): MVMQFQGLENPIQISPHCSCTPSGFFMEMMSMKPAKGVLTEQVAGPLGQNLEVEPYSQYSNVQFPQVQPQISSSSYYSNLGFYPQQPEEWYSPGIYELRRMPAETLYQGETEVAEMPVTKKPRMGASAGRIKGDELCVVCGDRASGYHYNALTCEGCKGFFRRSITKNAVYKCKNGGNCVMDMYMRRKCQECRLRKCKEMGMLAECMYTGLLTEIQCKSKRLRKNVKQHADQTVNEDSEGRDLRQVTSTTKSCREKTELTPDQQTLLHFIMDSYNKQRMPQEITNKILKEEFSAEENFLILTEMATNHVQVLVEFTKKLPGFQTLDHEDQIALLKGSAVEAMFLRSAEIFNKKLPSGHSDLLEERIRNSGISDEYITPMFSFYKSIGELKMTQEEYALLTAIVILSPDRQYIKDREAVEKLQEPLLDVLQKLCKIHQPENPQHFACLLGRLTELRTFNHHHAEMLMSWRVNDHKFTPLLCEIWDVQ
structure (smiles),measurement,setting,value
CCN(Cc1ccc(Cl)nc1)/C(=C/[N+](=O)[O-])NC,"ratio activity, negative = inhibition",[1],inconclusive: 0.623%
same,Potency,[2],inactive
same,Potency,[3],inactive
CC1(C)CCC(Cc2ccc(Cl)cc2)C1(O)Cn1cncn1 (centres undefined),Potency,[1],active: 49 µM
same,Potency,[4],"inconclusive: 49 µM [cytotoxic, single point]"
same,Potency,[2],"inconclusive: 77 µM [falling, partial curve, poor fit]"
same,Potency,[5],"inconclusive: 0.433 µM [cytotoxic, partial curve]"
same,Potency,[6],inactive
same,Potency,[7],"inconclusive: 27.5 µM [cytotoxic, partial curve, poor fit]"
same,Potency,[3],"inconclusive: 21.9 µM [cytotoxic, partial curve, poor fit]"
C[C@]12C/C(=C/O)C(=O)C[C@@H]1CC[C@@H]1[C@@H]2CC[C@@]2(C)[C@H]1CC[C@]2(C)O,Potency,[1],inconclusive: 49.4 µM [partial curve] and inconclusive: 33.5 µM [fluorescent]
same,Potency,[4],"inconclusive: 22.1 µM [cytotoxic, partial curve, poor fit] [setting not given]"
same,Potency,[2],inconclusive: 3.47 µM and active: 5.96 µM
same,Potency,[5],"inconclusive: 69.2 µM [cytotoxic, single point]"
same,Potency,[8],inconclusive: 62.2 µM [cytotoxic]
same,Potency,[9],inconclusive: 59.4 µM and inconclusive: 37.6 µM
same,Potency,[10]; [18],inconclusive: 44.1 µM [partial curve] and inconclusive: 26.6 µM
same,Potency,[11],"inconclusive: 35 µM [cytotoxic, partial curve, poor fit] and inactive"
same,Potency,[12],"inconclusive: 55.5 µM [fluorescent] and inconclusive: 13.3 µM [activator, partial curve, poor fit]"
same,Potency,[13],"inconclusive: 55.5 µM [cytotoxic] and inconclusive: 11.9 µM [cytotoxic, partial curve, poor fit]"
same,Potency,[14],inconclusive: 55.5 µM
same,Potency,[6],inconclusive: 55.5 µM [fluorescent] and inactive
same,Potency,[15],"inconclusive: 55.5 µM [cytotoxic, single point]"
same,Potency,[7],inconclusive: 49.4 µM [cytotoxic] and inactive
same,Potency,[3],inconclusive: 55.5 µM [cytotoxic]
c1ccc2sc(SNC3CCCCC3)nc2c1,Potency,[1],"inconclusive: 54.9 µM [inhibitor, partial curve, poor fit]"
same,"ratio activity, negative = inhibition",[1],inconclusive: 20%
same,Potency,[9],active: 13.3 µM
same,Potency,[13],"inconclusive: 610 nM [rising, partial curve]"
same,"activity change, negative = inhibition",[6],inconclusive: 19.6%
same,Potency,[15],"inconclusive: 54.9 µM [cytotoxic, partial curve, poor fit]"
same,Potency,[3],"inconclusive: 61.6 µM [cytotoxic, partial curve, poor fit]"
CCCCOC(=O)c1ccccc1N,"ratio activity, negative = inhibition",[1],inconclusive: 4.47% [at 81.1 µM]
same,activation,[2],inconclusive: 38.6% [at 94.8 µM]
same,Potency,[3],inactive
CC(C)N(C(=O)CCl)c1ccccc1,Potency,[1],active: 3.89 µM and active: 3.47 µM
same,Potency,[4],active: 49 µM and active: 27.5 µM
same,Potency,[2],"inconclusive: 4.86 µM [falling, full curve] and inconclusive: 3.86 µM [falling, full curve]"
same,Potency,[8],active: 12.3 µM and active: 5.49 µM
same,Potency,[9],inconclusive: 8.22 µM and inconclusive: 13.8 µM
same,Potency,[11],"inconclusive: 24.5 µM [cytotoxic, partial curve, poor fit] and inconclusive: 12.3 µM [cytotoxic, full curve, poor fit]"
same,Potency,[13],"inconclusive: 61.6 µM [cytotoxic, single point] and inconclusive: 61.7 µM [cytotoxic, partial curve, poor fit]"
same,Potency,[14],"inconclusive: 54.9 µM [falling, single point]"
same,Potency,[15],"inconclusive: 43.6 µM [cytotoxic, partial curve]"
same,Potency,[3],"inconclusive: 21.9 µM [rising, partial curve]"
COc1ccc(N)cc1N,Potency,[1],"inconclusive: 14.9 µM [rising, partial curve, poor fit]"
same,"ratio activity, negative = inhibition",[1],inconclusive: -44.4% [at 81.1 µM]
same,Potency,[4],"inconclusive: 56.7 µM [cytotoxic, single point]"
same,Potency,[8],"active: 8.01 µM and inconclusive: 29.7 µM [cytotoxic, single point]"
same,Potency,[16],"inconclusive: 20.1 µM [cytotoxic] and inconclusive: 21 µM [cytotoxic, partial curve, poor fit]"
same,activation,[10]; [18],inconclusive: -3.48% [at 81.1 µM]
same,activation,[10]; at 62.6 µM (top of the series),inactive: 9.62%
same,Potency,[11],"inconclusive: 50.5 µM [cytotoxic, partial curve, poor fit] and inconclusive: 23.6 µM [cytotoxic]"
same,Potency,[13],"inconclusive: 29700 nM [cytotoxic, single point]"
same,Potency,[17],inactive
same,Potency,[6],"inconclusive: 50.5 µM [inhibitor, partial curve, poor fit] and inactive"
same,Potency,[15],"inconclusive: 7.14 µM [cytotoxic, full curve] and inconclusive: 29.7 µM [cytotoxic, single point]"
same,Potency,[7],"inconclusive: 16 µM [cytotoxic, full curve]"
same,Potency,[3],inconclusive: 56.7 µM [cytotoxic] and inconclusive: 29.7 µM [cytotoxic]
